The whole screen tested about 48,000 compounds, of which about 550 (1.1%) were called active. Another 4% or so got no clear call; they are omitted. No stated cut-off is given here; in the data, active means potency below about 15 µM; inconclusive means mostly about 16 µM to 33 µM; inactive means weaker than that. The list shows a part of the results.
Biological target: Lysosomal acid glucosylceramidase (Homo sapiens) (UniProt P04062)
Assay: Glucocerebrosidase;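 further: the screen sought inhibitors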
Details: purified enzyme, resorufin glucoside fluorescence (screen aimed at inhibitors), 20 min
How it was run: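 Wild-type enzyme at 0.2 nM final in 50mM citric acid/KH2PO4, 10mM sodium taurocholate, 0.01% tween-20, pH 5.9, with resorufin beta-D-glucopyranoside at 30 uM final. Compounds titrated, 20 min at RT, red fluorescence read; AC50 from titration.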
Potency means the concentration at half of the fitted maximal effect.

UniProt P04062, sequence (P04062 whole entry, looked up): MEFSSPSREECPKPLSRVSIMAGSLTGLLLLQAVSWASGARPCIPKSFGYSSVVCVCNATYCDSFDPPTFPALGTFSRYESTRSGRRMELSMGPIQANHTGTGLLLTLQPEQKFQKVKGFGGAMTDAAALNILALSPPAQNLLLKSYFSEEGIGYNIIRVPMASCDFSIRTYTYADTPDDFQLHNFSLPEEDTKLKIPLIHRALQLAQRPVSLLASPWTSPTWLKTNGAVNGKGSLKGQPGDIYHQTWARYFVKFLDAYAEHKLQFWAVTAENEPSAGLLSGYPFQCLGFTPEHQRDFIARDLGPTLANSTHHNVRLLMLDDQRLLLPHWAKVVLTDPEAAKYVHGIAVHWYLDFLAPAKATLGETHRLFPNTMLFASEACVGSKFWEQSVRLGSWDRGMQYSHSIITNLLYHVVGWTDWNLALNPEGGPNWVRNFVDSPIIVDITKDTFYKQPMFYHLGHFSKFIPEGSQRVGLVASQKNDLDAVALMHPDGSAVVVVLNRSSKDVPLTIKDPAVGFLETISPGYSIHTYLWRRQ

Structure (SMILES) | Potency
O=C(CN1C(=O)C2CC=CCC2C1=O)NC1=NCCS1 (stereo unspecified) | inactive: > 76.9 µM
Cc1c(NC(=O)CN2C(=O)c3ccccc3S2(=O)=O)c(=O)n(-c2ccccc2)n1C | inactive: > 76.9 µM
COc1ccc2c(c1)-c1ccccc1S(=O)(=O)N2C(C)=O | inactive: > 76.9 µM
CCOC(=O)CC1(C)NC(=O)c2c(C)sc(C(=O)OCC)c2N1 (stereo unspecified) | inactive: > 76.9 µM
COc1cccc(C2=NC(C)(C)NC(c3ccccc3O)C2)c1 (stereo unspecified) | inactive: > 76.9 µM
CCOC(=O)N1CCN(C(=O)c2oc3ccc(S(=O)(=O)N4CC(C)CC(C)C4)cc3c2C)CC1 (stereo unspecified) | inactive: > 76.9 µM
O=C(O)COc1nsnc1N1CCOCC1 | inactive: > 76.9 µM
COC(=O)c1ccccc1NC(=O)C(CCS(C)(=O)=O)NC(C)=O (stereo unspecified) | inactive: > 76.9 µM
CCCCCC(=O)Nc1ccc(N2CCN(C(=O)CCC)CC2)cc1 | inactive: > 76.9 µM
CCc1ccccc1Nc1ccc(C(=O)O)cc1N | inactive: > 76.9 µM
COC(=O)c1oc2ccccc2c1NC(=O)CN1CCCC1 | inactive: > 76.9 µM
O=C(CCCN1C(=O)c2ccccc2C1=O)NCc1cccnc1 | inactive: > 76.9 µM
CCCCc1nc2ccccc2c(C(=O)O)c1C | inactive: > 76.9 µM
Cc1nonc1NC(=O)CSc1nc2cc(Cl)ccc2c2c1CCCC2 | inactive: > 76.9 µM
O=C(Cc1ccccc1)N[C@H](c1ccccc1)P(=O)(O)CO | inactive: > 76.9 µM
CCCc1cc(=O)[nH]c(SCc2ccc(C#N)cc2)n1 | inactive: > 76.9 µM
CCN1CCCC1CNC(=O)COc1cc(=O)n(C)c2ccccc12 (stereo unspecified) | inactive: > 76.9 µM
Cc1ccc(-n2nnnc2SCC(=O)Nc2c(C)n(C)n(-c3ccccc3)c2=O)cc1 | inactive: > 76.9 µM
Cc1nc(N2CCN(S(=O)(=O)c3ccc(F)cc3)CC2)c2c(C)c(C)sc2n1 | inactive: > 76.9 µM
COc1cc2c(N3CCOCC3)cc(O)c(CC(=O)Nc3ccccc3)c2cc1OC | inactive: > 76.9 µM
Cc1cc(=O)[nH]c2c1c(=O)[nH]n2C1CC(C)N(C)CC1C (stereo unspecified) | inactive: > 76.9 µM
CC1(C)Cc2ccccc2-c2nnc(-c3ccc(O)cc3)n21 | active: 8.36 µM
Cc1ccc(-c2nnc(SCC(=O)N3CCN(c4ccccc4)CC3)o2)cc1 | inactive: > 76.9 µM
Nn1c(COc2ccccc2)nnc1SCC(=O)O | inactive: > 76.9 µM
O=C(O)C(Cc1ccccc1)n1cccc1 (stereo unspecified) | inactive: > 76.9 µM
Cc1ccc2cc(CN(Cc3ccc4c(c3)OCO4)Cc3nnnn3Cc3ccco3)c(=O)[nH]c2c1C | inactive: > 76.9 µM
